Over roughly 110,000 compounds, “z-score” has its median near -0.1; the highest 2% begin near 2. The list shows a part of the results. The source made the active and inactive calls.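 Rule for the calls: active = z-score in the third read window above 3 or below -3; inactive = the rest.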

The target in the assay is Metabotropic glutamate receptor 8 (Rattus norvegicus) (UniProt P70579). Kind of assay: mGluR8 Gi/Go-coupled signaling modulation – cell-based, rat, thallium flux, HTS, primary screen (AID 488969). The conditions noted are these: HEK293 rat mGluR8, GIRK (G protein-gated inwardly rectifying potassium channel) thallium flux, FluoZin2; at 10 µM; stronger effect = higher value; submaximal glutamate (EC20) added with thallium.
UniProt P70579, sequence (P70579 whole entry, looked up): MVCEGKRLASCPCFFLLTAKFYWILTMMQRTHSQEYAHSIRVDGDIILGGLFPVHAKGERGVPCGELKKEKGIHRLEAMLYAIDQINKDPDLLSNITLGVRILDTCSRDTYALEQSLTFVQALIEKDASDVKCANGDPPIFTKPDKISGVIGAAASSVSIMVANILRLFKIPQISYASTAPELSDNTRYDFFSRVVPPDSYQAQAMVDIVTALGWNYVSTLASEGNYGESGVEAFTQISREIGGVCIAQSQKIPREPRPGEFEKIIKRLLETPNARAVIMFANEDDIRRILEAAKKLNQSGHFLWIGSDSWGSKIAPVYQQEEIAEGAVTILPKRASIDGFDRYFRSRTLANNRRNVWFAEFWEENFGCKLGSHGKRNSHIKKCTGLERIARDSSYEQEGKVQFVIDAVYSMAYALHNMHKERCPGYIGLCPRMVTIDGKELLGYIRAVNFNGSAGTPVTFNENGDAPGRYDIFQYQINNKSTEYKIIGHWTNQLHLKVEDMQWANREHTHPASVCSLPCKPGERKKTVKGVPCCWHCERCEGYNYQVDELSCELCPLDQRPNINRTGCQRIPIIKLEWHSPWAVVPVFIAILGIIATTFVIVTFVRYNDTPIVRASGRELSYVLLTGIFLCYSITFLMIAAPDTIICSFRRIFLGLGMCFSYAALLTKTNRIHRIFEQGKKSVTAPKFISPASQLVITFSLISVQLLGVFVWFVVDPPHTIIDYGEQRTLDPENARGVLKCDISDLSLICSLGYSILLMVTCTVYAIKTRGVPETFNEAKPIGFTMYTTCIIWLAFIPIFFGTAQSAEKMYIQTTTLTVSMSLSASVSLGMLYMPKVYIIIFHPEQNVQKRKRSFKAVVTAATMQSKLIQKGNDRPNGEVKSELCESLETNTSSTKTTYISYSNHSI
The compound `COc1ccc(/C=N/NC(=O)c2ccc(CN3c4cccc5cccc(c45)S3(=O)=O)cc2)cc1` displayed a z-score of -0.221.
The value for `Cc1ccc(OCC(=O)NNC(=O)C(C)Sc2ncnc3sc(C)c(C)c23)cc1` (stereo not drawn) was active: 7.7; that for `CCOC(=O)c1c(-c2ccc(C)cc2)csc1NC1=NS(=O)(=O)c2ccccc21` was 0.234.
`CCC(C)(C)n1nnnc1C(c1ccncc1)N1CCN(c2cccc(OC)c2)CC1` (stereo not drawn) had a z-score of -0.581.
In the case of `Cc1cc(C)n2ncc(C(=O)NCc3ccccc3)c2n1` it was -1.01; in that of `COc1cc2c(cc1OC)CN(CC(=O)Nc1ccc(C#N)cc1)CC2`, -0.227.
The value for `CC(=O)NCCOc1ccc(C(=O)O)cc1` was 0.21.
The value for `Oc1c(C(c2ccco2)N2CCC3(CC2)OCCO3)sc2ncnn12` (stereo not drawn) was -0.187; that for `COc1cccc(C(=O)OC(C)CN2CCCC2)c1` (stereo not drawn) was -0.531; that for `O=C1CC(C(F)(F)C(F)(F)C(F)(F)C(F)(F)F)=Nc2ccccc2N1` was -0.248.
In the case of `CCOC(=O)c1cccnc1NC(=O)c1ccncc1`, the z-score stood at 0.0523.
The value for `CC(C)(C)C(=O)Nc1sc2c(c1-c1nc3ccccc3[nH]1)CCCC2` was 0.132.
In the case of `CC(C)(C)n1nnnc1C(c1ccccc1F)N(Cc1ccco1)CC1CCCO1` (stereo not drawn) it was -0.39; in that of `CC(C)C(=O)Nc1cccc2nsnc12`, -0.858.
In the case of `Cc1ccc(CSc2nnc(SCC(=O)N/N=C/C=C/c3ccccc3[N+](=O)[O-])s2)cc1` it was 0.183; in that of `CCNC(=S)NS(=O)(=O)c1ccc(C)cc1`, -0.000771.
With `COc1ccc(S(=O)(=O)NCCN2CCOCC2)c2ccccc12`, the z-score is 1.
The value for `O=C(OCC(=O)c1c[nH]c2ccccc12)c1ccc(Br)o1` was -0.145.
The value for `CC1CCC(C(=O)NC(C(=O)NCc2cccnc2)C(C)C)CC1` (stereo not drawn) was -1.4.
In the case of `Cc1nc(CS(=O)(=O)c2ccc(Cl)cc2)cc(N2CCOCC2)n1` it was 0.0281; in that of `Cn1c(=O)cc(OCCCC(=O)N2CCN(c3ccccc3)CC2)c2ccccc21`, -0.127.
Consider `COc1ccc(CNC(=O)C(NS(=O)(=O)c2ccc3c(c2)CCCN3C(C)=O)C(C)C)cc1` (stereo not drawn), for which the z-score was -0.394.
The value for `CC(=O)N1CCN(S(=O)(=O)c2cccc(C(=O)NC3CCCc4ccccc43)c2)CC1` (stereo not drawn) was 0.0317; that for `Nc1nc(Sc2ccc(C(F)(F)F)cc2[N+](=O)[O-])n[nH]1` was 0.313; that for `Cc1ccc(NC(=O)CC(C)N2CCCC2)cc1` (stereo not drawn) was -0.269.
`CN(Cc1ccccc1)C(=O)CN(C1CCCCC1)S(C)(=O)=O` displayed a z-score of 0.423.
The value for `CCOc1cc(C)c(C(C)C)cc1S(=O)(=O)n1ccc(C)n1` was -1.39; that for `CC(C)(C)C1CCc2c(sc(NC(=O)c3cccs3)c2C(N)=O)C1` (stereo not drawn) was -1.18; that for `CC(=O)Nc1ccc(NC(=O)C(C)OC(=O)c2ccc(OCc3c(C)noc3C)cc2)cc1` (stereo not drawn) was -0.832.
The value for `Oc1cccc(/C=N/NC(=S)Nc2cccnc2)c1O` was -0.0902; that for `COc1cc(C2C(C#N)=C(N)Oc3cc(C)n(CC4CCCO4)c(=O)c32)cc2c1OCO2` (stereo not drawn) was 1.13; that for `Cc1c(NC(=O)/C=C/c2cn(-c3ccccc3)nc2-c2ccccc2)c(=O)n(-c2ccccc2)n1C` was -0.381.
Consider `O=C(CNC(=O)/C=C/c1ccccc1)N=Nc1c(O)n(Cc2ccccc2)c2ccccc12`, for which the z-score amounted to 0.491.
`COc1cccc2cc(C(=O)N3CCC(C)CC3)c(=O)oc12` came in with a z-score of -0.528.
In the case of `COc1ccccc1CNC(=O)C1CCCN(S(=O)(=O)c2c(C)[nH]c(=O)[nH]c2=O)C1` (stereo not drawn) it was -0.16.
In the case of `Fc1ccccc1N1CCN(C(c2ccccn2)c2nnnn2C2CCCCC2)CC1` (stereo not drawn) it was -0.0672; in that of `O=C(c1cc(Cl)nc2ccccc12)N1CCCCC1`, 0.0309; in that of `O=C(c1ccc2ccccc2c1)c1c[nH]cc1-c1ccccc1`, -0.152.
The value for `S=c1oc(-c2ccncc2)nn1CCc1ccncc1` was -0.237; that for `CC(C)Oc1ccc(Cn2c(-c3ccco3)n[nH]c2=S)cc1` was 0.738.
`CN(c1ccc(C(=O)NCc2ccc3c(c2)OCO3)cc1)S(C)(=O)=O` had a z-score of 0.173.
In the case of `O=C(NC(=O)N1CCN(c2ccc(F)cc2)CC1)c1ccccc1` it was 0.0399; in that of `COc1cc(OC)cc(C(=O)NNC(=O)c2ccccn2)c1`, 0.911; in that of `Cc1ccccc1NC(=O)C1Cc2ccccc2C(=O)O1` (stereo not drawn), 0.102.
As for `CCCSc1nnc(-c2ccccc2NC(=O)CC)c(=O)[nH]1`, the z-score is -0.696.
The value for `O=C(NCCCO)C(=O)NCCc1ccc(Cl)cc1` was 0.167; that for `Cc1cc(C)nc(SCC(=O)n2c3c(c4ccccc42)CCCC3)n1` was -0.336; that for `COc1cccc(CN(C(=O)Cc2c[nH]c3ccccc23)C(C(=O)NC2CCCCC2)c2ccc(C)o2)c1` (stereo not drawn) was -0.706.
The value for `CCCC(NS(=O)(=O)c1ccc(C)cc1)C(=O)O` (stereo not drawn) was 0.58; that for `COCc1cc(C2C(C(=O)c3ccco3)=C(O)C(=O)N2CCOCCO)ccc1O` (stereo not drawn) was 0.0385.
In the case of `CS(=O)(=O)N(CC(=O)Nc1ccc2c(c1)OCCO2)Cc1ccccc1` it was -0.179; in that of `O=C(NCc1ccccc1Cl)C1CCN(S(=O)(=O)N2CCCCC2)CC1`, 1.32.
The compound `CCCc1nc2ccccc2n2cc3c(=O)n(C)c(=O)n(C)c3c12` came in with a z-score of 0.0227.
Turning to `CCOC(=O)C1CCCN(c2nc3ccccc3nc2C(C#N)C(=O)OC(C)C)C1` (stereo not drawn), the z-score was -0.35.
In the case of `CCn1c(=N)n(CC(=O)OC)c2ccccc21` it was -0.45.
In the case of `COC(=O)Nc1sc2c(c1C(=O)N1CCOCC1)CCC(C)C2` (stereo not drawn) it was 0.0522.
In the case of `Cc1ccc(-c2nnc(N3CCN(S(C)(=O)=O)CC3)c3ccccc23)cc1` it was 0.51; in that of `O=C(CSc1nc(-c2ccccc2)cs1)NCc1ccco1`, -0.112.
With `CCN1C(=O)/C(=C/c2cn(C)nc2C)SC1=S`, the z-score is -0.188.
In the case of `Cn1c(=O)c2c(ncn2CC(=O)N/N=C/C=C/c2ccccc2)n(C)c1=O` it was -0.372; in that of `CCn1c(SCC(=O)NC2CCCCC2)nnc1-c1cc2cccc(OC)c2o1`, -1.02.
The value for `Cc1ccc(OCC(=O)OCc2c(C)noc2C)cc1C` was -0.167.
In the case of `COc1ccc(-c2cc(C(=O)NCc3cccnc3)no2)cc1OC` it was 0.108; in that of `O=C(Nc1ccc(Cl)cn1)C1CCCN1S(=O)(=O)c1ccc(Cl)cc1` (stereo not drawn), -0.562.
`Cc1ccc(NC(=O)CSc2ncc(S(=O)(=O)c3ccccc3)c(=O)[nH]2)cc1C`: the z-score turned out to be 0.179.
In turn, `O=C(O)CCCCCNC(=O)c1ccccc1Br` registered a z-score of -0.0928.
On to `COc1ccc(N2CCN(CC(=O)Nc3cc4c(cc3C(C)=O)OCO4)CC2)cc1`, for which the z-score is -0.0992.
In the case of `CC(=O)Nc1ccc2ccc3cccc4ccc1c2c34` it was 0.0586; in that of `COc1cc(-c2ccc(NC(=O)CN3CCCCC3)c(OC)c2)ccc1NC(=O)CN1CCCCC1`, 0.0379.
In the case of `Cc1ccccc1C(=O)NC1CCN(Cc2nnnn2Cc2ccccc2)CC1` it was 0.0602; in that of `CC(C)(C)c1ccc(/C=C/C(=O)NC2=NCCS2)cc1`, 0.16; in that of `CN(CC(=O)Nc1ccccc1C(=O)N1CCCC1)S(=O)(=O)c1ccc(Cl)cc1`, -0.112.
In the case of `O=C(NCCSCc1ccccc1)c1ccccc1` it was 0.218; in that of `Cc1ccc(C(=O)Nc2ccc3c(c2)OCO3)cc1`, 0.0712.
Turning to `O=C(CSc1nnnn1-c1ccccc1)N1CCc2ccccc21`, the z-score worked out at 0.249.
In the case of `O=C(COc1ccccc1Cl)c1ccc2c(c1)CCCC2` it was -0.0996; in that of `CC(C)(C)C(=O)NC(=S)N1CCOCC1`, -0.0566; in that of `O=S(=O)(c1ccc(Cl)c(Cl)c1)N1CCc2nc3ccccc3n2CC1`, 0.0426.
Compound `COC(=O)Cc1ccc(NC(=S)NCC(C)C)cc1` had a z-score of -0.315.
In the case of `Cn1cnc(S(=O)(=O)NCc2cccs2)c1` it was -0.799; in that of `Cc1ccc(NC(=O)C2CCCN(S(=O)(=O)c3cnc[nH]3)C2)cc1F` (stereo not drawn), -0.00916.
In the case of `N/C(=N\OC(=O)C1CCCCC1)c1cccnc1` it was -0.114; in that of `COc1ccc(N2C(=O)CSC23CCC(C(C)(C)C)CC3)cc1` (stereo not drawn), 0.931.
The compound `O=C(CSCCO)N1CCc2ccccc21` registered a z-score of -0.11.
In the case of `O=c1[nH]c(N2CCN(c3ccccc3)CC2)nc2c1CCC2` it was -0.197; in that of `O=S(=O)(/N=C(/Nc1ccccc1F)c1ccccc1)c1ccccc1`, -0.128.
The value for `Cc1ccc(/C=N/NC(=O)C2CCN(Cc3ccc(F)cc3Cl)CC2)o1` was -0.0632; that for `CC(CN1CCCCC1)OC(=O)c1ccc(Cl)cc1Cl` (stereo not drawn) was 2.27.
In the case of `O=C(Cc1ccccc1)NN1C(=O)C2C3C=CC(C4CC34)C2C1=O` (stereo not drawn) it was -0.0404; in that of `COc1cc(CNc2ccccc2SC)cc(OC)c1OC`, -1.26.
Turning to `CCOC(=O)Nc1ccc2c(c1)N(C(=O)CCN1CCN(C)CC1)c1ccccc1S2`, the z-score is -0.15.
In the case of `COC(=O)C1=C(N)Oc2c(oc(CO)cc2=O)C1c1ccccc1F` (stereo not drawn) it was -0.088.
The value for `O=C(CN1CCc2ccccc21)NC(c1ccccc1)c1ccccc1` was 0.798.
The value for `O=C(Cn1nc(-c2ccccc2)ccc1=O)N1CCOCC1` was 0.447; that for `O=C(O)C1CCCN1S(=O)(=O)c1ccc(Cl)c(Cl)c1` (stereo not drawn) was -0.451; that for `Cn1nnc(NC(=S)NC(=O)c2ccco2)n1` was -0.217.
In the case of `O=C(C1=C(O)C(=O)N(CCc2ccccc2)C1c1cccnc1)c1ccco1` (stereo not drawn), the z-score was determined as 0.127.
The value for `O=C(NC1CCCC1)C(c1ccc(Cl)cc1)N(Cc1ccc(F)cc1)C(=O)CCl` (stereo not drawn) was -0.0618.
In the case of `CCOc1ccc(NCCC(=O)c2ccc3c(c2)OCO3)cc1` it was -0.0574; in that of `CC(C)(C)NC(=O)Nc1ccc2nccnc2c1`, 0.111; in that of `COc1ccc(/C=C/C(=O)NCc2cnn(C)c2C)cc1COc1ccc(Br)cc1`, -0.138.
The value for `Cc1ccc(-c2nn3c(C)nnc3c3ccccc23)cc1S(=O)(=O)NCc1ccccc1` was -0.413.
`O=C1OC(Oc2ccccc2)(c2ccccc2)c2ccccc21` (stereo not drawn) yielded a z-score of -0.37.
The value for `O=C(CSc1nnc(NC(=O)c2ccc(S(=O)(=O)N3CCOCC3)cc2)s1)Nc1ccccc1C(F)(F)F` was -0.118.
In the case of `Cc1cc(N)ccc1NC(=O)c1ccccc1` it was -0.132; in that of `c1cc2c(cc1C1=Nn3c(nnc3C3CCCCC3)SC1)OCO2`, -2.36; in that of `Cn1c(-c2ccc(Cl)cc2)ccc(C#N)c1=O`, -0.357.
As for `O=C(Cc1cccs1)Nc1nncs1`, the z-score is -0.0193.
As for `CC(C)(C)NC(=O)c1cccc(NC(=O)c2ccc(NC(=O)c3ccco3)cc2)c1`, the z-score was -1.64.
The value for `Cn1c(SCc2cccc(Cl)c2)nc(C(F)(F)F)cc1=O` was -0.00278.
Consider `Cc1noc(C)c1C(=O)N(CC(=O)NC1CCCC1)Cc1ccccc1F`, for which the z-score was -0.119.
In the case of `COc1ccc(NC(=O)NC(C(F)(F)F)C(F)(F)F)cc1` it was 0.138; in that of `CCCCSc1[nH]c(=O)c(C(=O)OCC)cc1C#N`, -0.384.

Source of the values: PubChem BioAssay AID488969 (Vanderbilt High Throughput Screening Facility, 2010).
